Like-named read-outs stand apart in the source and are kept apart here.
Assays:
[1] = test system: HIV (antiviral activity in PBMC's); test: Test B: antiviral activity in PBMC's; type: cell-based
Description: The antiviral properties of compounds of the invention can also be determined in PBMCs using a procedure similar to that described by E. I. McIntee, et al. J. Med. Chem., 1997, 40, 3323-3331.

Log P = type: physicochemical; settings: as demonstrated by the Log P values
MCF-7 cells [2] = test: Test C: cytotoxicity in MCF-7 breast cancer cells
HIV-1 = test: Test A: antiviral activity against HIV-1 isolates and laboratory strain in peripheral blood lymphocytes; type: cell-based; settings: for IC50: read-out: Mean IC50 in PBLs; for antiviral activity relative to DZA: HIV-1 in peripheral blood lymphocytes
Method: The antiviral activity of representative compounds of the invention was determined with matched HIV-1 isolates and a laboratory HIV-1 strain as previously described (D. L. Mayers et al., Proc. Natl. Acad. Sci., USA 1995, 92, 215-219; and C. R. Wagner et al., Bioorganic and Medicinal Chemistry Letters, 1995, 5, 1819-1824).

rat mammary carcinomas = test: Test D: in vivo anti-breast tumor activity, methyl nitroso urea induced mammary tumors; design: species or system Sprague-Dawley rats; settings: i.p. daily
Method: The in vivo anti-breast tumor activity of AZT and compound 9 against rat mammary carcinomas, was evaluated as follows. Fifty-day old female Sprague-Dawley rats with an average weight of 170 g we given 50 mg/kg of methyl nitroso urea in 1 mL of water by i.p. injections over a period of one week. One hundred percent of the rats developed mammary tumors between 2 to 3 months after treatment. Once a week, the rats were lightly anesthesized with ether and the tumors were measured in 2 dimensions with a caliper. The tumor volume was calculated based on an ellipsoid tumor shape with the following equation: v=4/3Pr12r2, where r^1 is the minor radius. The rats were selected after at least one tumor pet rat had reached 1 cm in a single dimension. The rats were divided into control and experimental groups. Each experimental rat was matched with a control rat with similar sized tumors and the overall number of tumors at the beginning of the experiment was approximately the same for both groups. The animals were divided into 4 treatment groups with 5 animals in each group, and injected i.p. daily for the duration of the experiment. Tumor size and weight was determined weekly.
Tumor volumes of control and treated rats were measured and plotted on a growth curve (FIG. 6). For the control animals, the tumor size approximately doubled in volume every seven days. […]

MCF-7 cells [3] = test system: MCF-7 cells
[4] = Donor 1, read-out: IC50 PBMC's Donor 1
[5] = Donor 2, read-out: IC50 PBMC's Donor 2

Question: Which IC50 [1, 4] does the source give for COC(=O)[C@H](Cc1ccccc1)NP(=O)(O)OC[C@H]1O[C@@H](n2cc(C)c(=O)[nH]c2=O)C[C@@H]1N=[N+]=[N-] [Compound 11, 3-Azido-3-deoxythymidine-5-methoxy-L-phenylalaninylphosphoramidate] here?
Answer: 30000 nM

Question: What about the IC50 [1, 5] of the same compound?
Answer: 15000 nM

Question: And the “solubility in water relative to AZT” value (Log P)?
Answer: one of two orders of magnitude more soluble in water than AZT

Question: What about the IC50 (MCF-7 cells [2]; MCF7 cells) of the same compound?
Answer: 400 ± 50 nM

Question: And the “fold less toxic than AZT” value (MCF-7 cells [2]; MCF7 cells)?
Answer: 40 fold

Question: With Nc1nccc2c1ncn2[C@@H]1C[C@H](CO)[C@@H](O)[C@H]1O [DZAri, 3-deaza aristeromycin, reference compound] as the compound, how does the IC50 (HIV-1; HIV-1 isolate A012 post-AZT) read?
Answer: 365 nM

Question: And the IC50 (HIV-1; HIV-1 isolate A012 pre-AZT)?
Answer: 141 nM

Question: For COC(=O)[C@H](Cc1c[nH]c2ccccc12)NP(=O)(O)OC[C@H]1O[C@@H](n2cc(C)c(=O)[nH]c2=O)C[C@@H]1N=[N+]=[N-] [Compound 9, 3-Azido-3-deoxythymidine-5-methoxy-L-trytophanyl-phosphoramidate], which IC50 [1, 4] is on record?
Answer: 300 nM

Question: And the IC50 [1, 5]?
Answer: 350 nM

Question: What about the “solubility in water relative to AZT” value (Log P) of the same compound?
Answer: one of two orders of magnitude more soluble in water than AZT

Question: What about the “effect on tumor size” value (rat mammary carcinomas) of the same compound?
Answer: complete tumor registration in ten days

Question: What about the CC50 (MCF-7 cells [3]) of the same compound?
Answer: 30 nM

Question: And the “fold more toxic than the D-phenylalanine derivative 12” value (MCF-7 cells [2])?
Answer: at least 100 fold

Question: What about the “fold more toxic than the D-tryptophan derivative 10” value (MCF-7 cells [2]) of the same compound?
Answer: > 3000 fold

Question: What about the “fold less toxic than AZT” value (MCF-7 cells [2]; MCF7 cells) of the same compound?
Answer: three-fold less toxic than AZT

Question: With COC(=O)C(Cc1ccccc1)NP(=O)(O)OCC1CC(n2cnc3c(N)nccc32)C(O)C1O (stereo not shown) [Compound 7, 3-Deaza aristeromycin-5-N-(1-carbomethoxy-2-phenylethyl)-phosphoramidate] as the compound, how does the IC50 (HIV-1; HIV-1 isolate G910 AZTr) read?
Answer: 10000 nM

Question: And the IC50 (HIV-1; HIV-1 isolate LAI)?
Answer: 400 nM

Question: What about the “antiviral activity compared to DZAri” value (HIV-1; preliminary experiments) of the same compound?
Answer: comparable antiviral activity to DZAri

Question: Which “antiviral activity relative to DZA” value (HIV-1) does the source give for COC(=O)C(Cc1c[nH]c2ccccc12)NP(=O)(O)OCC1OC(n2cnc3c(N)nccc32)C(O)C1O (stereo not shown) [Compound 6, 3-Deaza adenosine-5-N-(1-carbomethoxy-2-indol-3-ylethyl)-phosphoramidate] here?
Answer: nearly forty-fold more active than DZA

Question: What about the IC50 (HIV-1; HIV-1 isolate A012 post-AZT) of the same compound?
Answer: > 10000 nM

Question: And the IC50 (HIV-1; HIV-1 isolate A012 pre-AZT)?
Answer: 4.4 nM

Question: With COC(=O)C(Cc1ccccc1)NP(=O)(O)OCC1OC(n2cnc3c(N)nccc32)C(O)C1O (stereo not shown) [Compound 5, 3-Deaza adenosine-5-N-(1-carbomethoxy-2-phenylethyl) phosphoramidate] as the compound, how does the “antiviral activity relative to DZA” value (HIV-1) read?
Answer: nearly ten-fold more active than DZA

Question: And the IC50 (HIV-1; HIV-1 isolate A012 post-AZT)?
Answer: > 10000 nM

Question: What about the IC50 (HIV-1; HIV-1 isolate A012 pre-AZT) of the same compound?
Answer: 9.3 nM

Question: Which results are given for COC(=O)[C@@H](Cc1ccccc1)NP(=O)(O)OCC1OC(n2cc(C)c(=O)[nH]c2=O)CC1N=[N+]=[N-] (stereo partly drawn) [Compound 12, 3-Azido-3-deoxythymidine-5-methoxy-D-phenylalaninylphosphoramidate]?
Answer: IC50 [1, 4]: 50 nM; IC50 [1, 5]: 85 nM

Question: Which results are given for Cc1cn([C@H]2C[C@H](N=[N+]=[N-])[C@@H](CO)O2)c(=O)[nH]c1=O [AZT, reference compound]?
Answer: reduction of the rate of tumor growth (rat mammary carcinomas): ~80%; CC50 (MCF-7 cells [3]): 10 nM; IC50 (HIV-1; HIV-1 isolate A012 post-AZT): > 1000 nM; IC50 (HIV-1; HIV-1 isolate A012 pre-AZT): 1.2 nM; IC50 (HIV-1; HIV-1 isolate G910 AZTr): 700 nM; IC50 (HIV-1; HIV-1 isolate LAI): 4 nM

Question: For COC(=O)[C@@H](Cc1c[nH]c2ccccc12)NP(=O)(O)OC[C@H]1O[C@@H](n2cc(C)c(=O)[nH]c2=O)C[C@@H]1N=[N+]=[N-] [Compound 10, 3-Azido-3-deoxythymidine-5-methoxy-D-trytophanyl-phosphoramidate], which IC50 [1, 4] is on record?
Answer: 1000 nM

Question: What about the IC50 [1, 5] of the same compound?
Answer: 1000 nM

Reference: patent US6475985B1, “Nucleosides with antiviral and anticancer activity” (priority 1998, dated 2002)
